Experimental data published in PubChem BioAssay AID1345083 (National Center for Advancing Translational Sciences (NCATS), 2018).
Hit rate of the full screen: of about 94,000 compounds, about 6,200 (6.6%) were called active. The shares of active, inactive and inconclusive entries below differ from those in the screen. The call rests on the fitted dose curve; in most records, active means well fitted inhibition curve with a large enough effect; inconclusive means small, poorly fitted or top-dose-only effect; inactive means flat fitted curve, though single readings scatter. Where the call is inconclusive, the potency comes from a doubtful curve fit.

experiment: Cytotoxic Profiling in HEK 293 Cell Line of Diverse Libraries Using Quantitative High-Throughput Screening; conditions: HEK 293 viability, ATP luminescence (CellTiter-Glo), 48-72 h; series mostly up to 115 µM; further: nearly all actives have a fitted effect of over 60% in size
Summary of the method: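 Viability of HEK 293 cells, plated at 250 cells/well, was judged by cellular ATP after compound treatment for 48 or 72 hr. Luminescence was imaged 10 min after CellTiter-Glo addition at room temperature.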
Potency means the concentration at half of the fitted maximal effect; tags describe the fitted curve by direction and shape.

Row | Structure (SMILES) | Potency
1 | Cc1ccccc1OCc1nc(C2CN(C(=O)c3nccc4ccccc34)C2)no1 | inconclusive: 79.4 µM [inhibitor, partial curve, poor fit]
2 | CCc1ccc(N2CC(c3noc(-c4nccc5ccccc45)n3)CC2=O)cc1 (stereo not given) | inconclusive: 79.4 µM [inhibitor, partial curve, poor fit]
3 | CCN(CC)c1cc(CCC(=O)N2CCN(c3ncccn3)CC2)ccn1 | inconclusive: 89.1 µM [inhibitor, single point]
4 | Cc1cc(C[C@@H]2COC[C@@H]2NC(=O)CN2C(=O)NC(=O)C2(C)C)on1 | inactive
5 | CN1CC[C@H](c2nc3ccc(C(F)(F)F)cc3[nH]2)C1 | active: 112 µM
6 | Cc1nc2c(c(-c3ccc(O)cc3)n1)CN(C(=O)c1cccc(Cl)c1)CC2 | inconclusive: 89.1 µM [inhibitor, single point]
7 | O=C(NC1CCCC1)N1CCc2nc(-c3ccc(Cl)cc3)nc(-c3ccccc3)c2C1 | inconclusive: 35.5 µM [inhibitor, partial curve]
8 | CC(=O)N1CCN(Cc2ccccc2-c2ccccc2F)CC1 | inactive
9 | O=C(NCCCN1CCCCC1)C1(CCO)CC12CCOCC2 (stereo not given) | inactive
10 | CC(=O)N1CCN(c2nc(-c3c(C)noc3C)cc3c2cc(-c2ccccc2)n3C)CC1 | inconclusive: 25.1 µM [inhibitor, full curve, poor fit]
11 | CNC(=O)c1cc(C2CC2)nc2c1c(C1CCCN(C(=O)c3ccc(OC)cc3)C1)nn2C (stereo not given) | inconclusive: 56.2 µM [inhibitor, partial curve, poor fit]
12 | COCCCNC(=O)[C@@H]1Cc2cn(Cc3cc(C)on3)c3cccc(c23)[C@H](CC(C)C)N1 | active: 35.5 µM
13 | COc1cccc(CN2CCc3c(cc(C(=O)NCc4ccccn4)n3C)C2)c1 | inconclusive: 79.4 µM [inhibitor, single point]
14 | c1ccc([C@@H]2C[C@@H]3C[C@H](N4CCN(Cc5ccccn5)CC4)C[C@@H]3CO2)cc1 | inconclusive: 70.8 µM [inhibitor, partial curve, poor fit]
15 | Cc1ccc2nc(C(C)NC(=O)c3cnc(-c4ccccn4)[nH]c3=O)[nH]c2c1 (stereo not given) | active: 25.1 µM
16 | CCCCNC(=O)C1c2ccccc2C(=O)N(CCOC)C12CCCCC2 (stereo not given) | inconclusive: 89.1 µM [inhibitor, single point]
17 | COc1ccc(C(=O)NCCn2ccn3nc(-c4ccc(C)c(C)c4)cc3c2=O)cc1F | inconclusive: 89.1 µM [inhibitor, single point]
18 | COc1ccc(CCc2nc3nccc(-c4ccc(OC)cc4F)n3n2)cc1 | inconclusive: 10 µM [inhibitor, full curve, poor fit]
19 | COc1ccc(CN2CCCCCNC(=O)[C@@H]3CCC[C@@H]32)cc1Cn1ccnc1 | inconclusive: 79.4 µM [inhibitor, partial curve]
20 | COc1ccc(CC(=O)NCc2cc(C)cc3c(C)c(C)[nH]c23)c(OC)c1 | inconclusive: 35.5 µM [inhibitor, full curve, poor fit]
21 | COc1ccc(-c2cnc3[nH]cc(CC(=O)Nc4ccc(C(F)(F)F)cc4)c3c2)cc1 | inconclusive: 79.4 µM [inhibitor, partial curve, poor fit]
22 | COc1ccc(-c2nc(-c3ccccc3)nc3c2CN(C(=O)Cc2cccc(Cl)c2)CC3)cc1 | inconclusive: 22.4 µM [inhibitor, full curve, poor fit]

Row | Structure (SMILES) | Potency
23 | COc1ccc(C(=O)NC2CCN(C(=O)N3CC4CC(C3)[C@H]3CCCC(=O)N3C4)CC2)c(OC)n1 (stereo not given in full) | inactive
24 | O=C(C1CC1)N1CCC2(CC1)C(=O)NCN2Cc1ccc(Cl)cc1 | inactive
25 | O=C(Nc1ccc(-c2nnc3n2CCCC3)cc1)c1cnccn1 | inactive
26 | Cc1nn2c(c1-c1ccccc1[S+](C)(=O)[O-])N(C(=O)Cc1ccccc1)CCC2 | inactive
27 | NC(=O)Cn1ccc2cc(OCC3CCN(C(=O)Oc4ccccc4Cl)CC3)cnc21 | inconclusive: 50.1 µM [inhibitor, partial curve, poor fit]
28 | O=C(NCCc1ccccn1)C1c2ccccc2C(=O)N(C2CCCCC2)C12CCCCC2 (stereo not given) | active: 44.7 µM
29 | COC1CN(c2cccc(F)c2)C12CCN(C(=O)NC(C)(C)C)CC2 (stereo not given) | inconclusive: 89.1 µM [inhibitor, partial curve, poor fit]
30 | COCC1CN(S(=O)(=O)c2ccc3c(c2)CCCC3)CC12CCNCC2 (stereo not given) | inconclusive: 63.1 µM [inhibitor, partial curve, poor fit]
31 | CCC(CC)n1c(=O)n(Cc2cc(C(C)C)no2)c2cc(C(=O)O)cnc21 | inactive
32 | COc1ccc(CNC(=O)CN2C(=O)NC(c3ccc(Cl)cc3)C3=C2COC3=O)cc1 (stereo not given) | inconclusive: 15.8 µM [inhibitor, full curve]
33 | COCc1nc(C2CCCN(C(=O)c3ccc(OC)cc3OC)C2)no1 (stereo not given) | inactive
34 | CCN1CCN(CCNC(=O)C23CCCC=C2N(Cc2ccccc2)C(=O)CC3)CC1 (stereo not given) | inactive
35 | Cc1ccc2nc([C@H]3CCN(C(=O)c4ccccc4)C3)[nH]c2c1 | inconclusive: 126 µM [inhibitor, single point]
36 | CCCC1CN(Cc2ccc(OC)cc2)[S+](=O)([O-])c2cnccc2O1 (stereo not given) | inconclusive: 50.1 µM [inhibitor, partial curve, poor fit]
37 | O=C(C[C@@H]1CCNC[C@@H]1Cc1cc(COc2ccccc2)on1)N1CCC(Cc2ccccc2)CC1 | active: 25.1 µM
38 | CCn1ccnc1CN1CCCC(CO)(Cc2cccc(Cl)c2)C1 (stereo not given) | inconclusive: 44.7 µM [inhibitor, partial curve, poor fit]
39 | O=C(NCC1(O)CCCNCC1)c1cccc(-c2ccc(F)cc2)c1 (stereo not given) | inconclusive: 89.1 µM [inhibitor, partial curve, poor fit]
40 | O=C(c1ccc(F)cc1Cl)N1CCC2(CC1)NC(=O)N(Cc1ccccc1)C2=O | inconclusive: 28.2 µM [inhibitor, partial curve, poor fit]
41 | O=C1Nc2ccc(-c3ccc(Cl)cc3)cc2C(=O)N2CCN(C(=O)c3ccccc3)C[C@H]12 | inconclusive: 56.2 µM [inhibitor, partial curve, poor fit]
42 | CC(Oc1ccccc1)C(=O)N1CC(Oc2cccc(-c3nc(-c4ccccc4)no3)c2)C1 (stereo not given) | active: 31.6 µM
43 | Cc1ccc(-c2noc(CNC(N)=O)n2)nn1 | inconclusive: 10 µM [inhibitor, full curve, poor fit]
44 | C=CCN(C)C(=O)[C@@H]1Cc2c[nH]c3cccc(c23)[C@H](CC(C)C)N1 | inconclusive: 100 µM [inhibitor, partial curve]

Row | Structure (SMILES) | Potency
45 | COC(=O)c1ccc2c(c1)nc1n2[C@@H](CNC(=O)c2ccc(Cl)cc2)COC1 | inconclusive: 100 µM [inhibitor, partial curve, poor fit]
46 | CCc1ccccc1NC(=O)Cn1c(N(C)Cc2ccccc2)nc(C)cc1=O | inconclusive: 79.4 µM [inhibitor, single point]
47 | Cc1nc(C(F)(F)F)nc(N2CCOC(c3ccc(F)cc3)C2)c1C (stereo not given) | inconclusive: 44.7 µM [inhibitor, partial curve, poor fit]
48 | Cc1cc(C(=O)N2CCC(N3C(=O)C(OCC4CC4)C34CCOCC4)CC2)nn1C (stereo not given) | inactive
49 | CC(=O)N1CCCC(c2nnc3n2CCNC3)C1 (stereo not given) | inactive
50 | Cn1ncc2c(C(=O)NCCCc3ccccc3)cc(-c3ccccc3C(F)(F)F)nc21 | inconclusive: 35.5 µM [inhibitor, full curve, poor fit]
51 | CC1CCCCC1NC(=O)c1ccc2nccn2c1 (stereo not given) | inactive
52 | CCOC(=O)[C@@H]1[C@@H](OC)C(=O)N(C(C)C)C12CCN(C(=O)c1csc(-c3cccs3)n1)CC2 | inconclusive: 50.1 µM [inhibitor, partial curve, poor fit]
53 | O=C(NC1CCN(CCn2nc3n(c2=O)CCCC3)C1)c1ccc(F)cc1 (stereo not given) | inactive
54 | O=C(COc1ccc(F)cc1)N1CCC2(CC1)NCCc1c2[nH]c2ccccc12 | active: 44.7 µM
55 | COc1cccc(CN2CCC(Cc3ncc(C)n3CC3CC3)C2)c1OC (stereo not given) | active: 44.7 µM
56 | Cc1noc(C)c1CCC(=O)NC1CCCc2c1[nH]c1ccccc21 (stereo not given) | inconclusive: 56.2 µM [inhibitor, partial curve, poor fit]
57 | Cc1ccc(C2(C(=O)N3CCN(Cc4ccccc4)CC(O)C3)CC2)cc1 (stereo not given) | inconclusive: 89.1 µM [inhibitor, single point]
58 | CO[C@H]1CN(C2CCN(C(=O)c3noc(C)c3Cn3cccn3)CC2)[C@H]1c1cccnc1 | inactive
59 | COC[C@H]1CCCN1Cc1nc(C2(O)CCN(Cc3ccc(C(F)(F)F)cc3)CC2)cs1 | inconclusive: 44.7 µM [inhibitor, partial curve, poor fit]
60 | CC(C)Cn1c(=O)c(C(=O)N2CCCC2)nc2cccnc21 | inactive
61 | O=C(Cc1ccc(Cl)cc1)N1CCC2(CC1)NC(=O)N(c1ccccc1Cl)N2 | active: 89.1 µM
62 | Cc1ccc(CNc2ccc3nnc(C(C)C)n3n2)o1 | inconclusive: 89.1 µM [inhibitor, single point]
63 | Cc1ccc2nc(NC(=O)C3CC(=O)N(c4n[nH]c5cccc(F)c45)C3)sc2c1 (stereo not given) | active: 25.1 µM
64 | Cc1ccc(CN2CCN(C(=O)C3(Cc4cccnc4)CCCCC(=O)N3)CC2)cc1 (stereo not given) | inconclusive: 44.7 µM [inhibitor, partial curve, poor fit]
65 | O=C(c1ccccn1)N1CCN(c2ccc3nnc(C4CC4)n3n2)CC1 | inactive
